Experimental data taken from article PMC9911399, “Two distinct binding modes provide the RNA-binding protein RbFox with extraordinary sequence specificity”.
Changes are numbered by the printed parent chain; changes in the protein carry UniProt numbers. The list shows a part of the results.

T1: RBFOX1 RRM (Homo sapiens, UniProt Q9NWB1 109-208)
T1 sequence: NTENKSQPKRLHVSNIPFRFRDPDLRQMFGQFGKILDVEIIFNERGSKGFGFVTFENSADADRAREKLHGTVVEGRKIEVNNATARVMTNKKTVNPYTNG

B1: GGGGCAU (DNA:RNA)
RNA: GGGAGACCGGAAUUCAGAUUGUCCGGGGCAUUUAAAUCCCGUCGUAGCCACCA
DNA 1: CAATCTGAATTCCGGTCTCCC
DNA 2: TGGTGGCTACGACGGGATT
B2: AAUUUCA (DNA:RNA)
RNA: GGGAGACCGGAAUUCAGAUUGUCCAAUUUCAUUAAAUCCCGUCGUAGCCACCA
DNA 1: CAATCTGAATTCCGGTCTCCC
DNA 2: TGGTGGCTACGACGGGATT
B3: CAUGAAG (DNA:RNA)
RNA: B2 RNA with A25C, U28G, U29A, C30A, A31G
DNA 1: CAATCTGAATTCCGGTCTCCC
DNA 2: TGGTGGCTACGACGGGATT
B4: CUUUGCU (DNA:RNA)
RNA: B2 RNA with A25C, A26U, U29G, A31U
DNA 1: CAATCTGAATTCCGGTCTCCC
DNA 2: TGGTGGCTACGACGGGATT
B5: UUGUGCA (DNA:RNA)
RNA: B2 RNA with A25U, A26U, U27G, U29G
DNA 1: CAATCTGAATTCCGGTCTCCC
DNA 2: TGGTGGCTACGACGGGATT
B6: AUCACGG (DNA:RNA)
RNA: B2 RNA with A26U, U27C, U28A, U29C, C30G, A31G
DNA 1: CAATCTGAATTCCGGTCTCCC
DNA 2: TGGTGGCTACGACGGGATT
B7: GGUAUUG (DNA:RNA)
RNA: B2 RNA with A25G, A26G, U28A, C30U, A31G
DNA 1: CAATCTGAATTCCGGTCTCCC
DNA 2: TGGTGGCTACGACGGGATT
B8: GCUCGCC (DNA:RNA)
RNA: B2 RNA with A25G, A26C, U28C, U29G, A31C
DNA 1: CAATCTGAATTCCGGTCTCCC
DNA 2: TGGTGGCTACGACGGGATT
B9: UUAGGAA (DNA:RNA)
RNA: B1 RNA with G25U, G26U, G27A, C29G, U31A
DNA 1: CAATCTGAATTCCGGTCTCCC
DNA 2: TGGTGGCTACGACGGGATT
B10: UGUCACA (DNA:RNA)
RNA: B2 RNA with A25U, A26G, U28C, U29A
DNA 1: CAATCTGAATTCCGGTCTCCC
DNA 2: TGGTGGCTACGACGGGATT
B11: GCUGGCC (DNA:RNA)
RNA: B2 RNA with A25G, A26C, U28G, U29G, A31C
DNA 1: CAATCTGAATTCCGGTCTCCC
DNA 2: TGGTGGCTACGACGGGATT
B12: UAGCUGC (DNA:RNA)
RNA: B2 RNA with A25U, U27G, U28C, C30G, A31C
DNA 1: CAATCTGAATTCCGGTCTCCC
DNA 2: TGGTGGCTACGACGGGATT
B13: GCUUGCA (DNA:RNA)
RNA: B2 RNA with A25G, A26C, U29G
DNA 1: CAATCTGAATTCCGGTCTCCC
DNA 2: TGGTGGCTACGACGGGATT
B14: GUCACAC (DNA:RNA)
RNA: B1 RNA with G26U, G27C, G28A, U31C
DNA 1: CAATCTGAATTCCGGTCTCCC
DNA 2: TGGTGGCTACGACGGGATT
B15: UACAAAC (DNA:RNA)
RNA: B2 RNA with A25U, U27C, U28A, U29A, C30A, A31C
DNA 1: CAATCTGAATTCCGGTCTCCC
DNA 2: TGGTGGCTACGACGGGATT
B16: GAAACCA (DNA:RNA)
RNA: B2 RNA with A25G, U27A, U28A, U29C
DNA 1: CAATCTGAATTCCGGTCTCCC
DNA 2: TGGTGGCTACGACGGGATT
B17: CCGUAUU (DNA:RNA)
RNA: B1 RNA with G25C, G26C, G28U, C29A, A30U
DNA 1: CAATCTGAATTCCGGTCTCCC
DNA 2: TGGTGGCTACGACGGGATT
B18: GAGCAAU (DNA:RNA)
RNA: B1 RNA with G26A, G28C, C29A
DNA 1: CAATCTGAATTCCGGTCTCCC
DNA 2: TGGTGGCTACGACGGGATT
B19: CUUUGGU (DNA:RNA)
RNA: B2 RNA with A25C, A26U, U29G, C30G, A31U
DNA 1: CAATCTGAATTCCGGTCTCCC
DNA 2: TGGTGGCTACGACGGGATT
B20: UCAUCGA (DNA:RNA)
RNA: B2 RNA with A25U, A26C, U27A, U29C, C30G
DNA 1: CAATCTGAATTCCGGTCTCCC
DNA 2: TGGTGGCTACGACGGGATT

The binders below were run against T1, RBFOX1 RRM (assay: EMSA; HiTS-Eq, 1 nM pool, 10 min; buffer printed only for the single-RNA assays: 10 mM Tris pH 7.5, 150 mM NaCl, 3.4 mM EDTA, 0.001% NP-40, 30 C). Details: tags: His6 N-terminal (pET28a); label: 5' 32P.
Summary of the method: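 A pool of RNA with 7 randomized nucleotides, 5′-radiolabelled and with DNA-annealed flanks, was equilibrated at 1 nM for 10 min in 50 µL with purified RbFox RRM, wild type or mutant, across increasing protein concentrations. Free RNA was separated by 8% native PAGE, excised, reverse-transcribed, barcoded by PCR and sequenced. Relative association constants were obtained from read-count changes of each RNA species versus the control reaction and normalised to the cognate motif.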

**Q.** With B1 as the binder, how does the binding signal read?
**A.** The binding signal was 0.0283 KA relative to UGCAUGU.

**Q.** With B2 as the binder, how does the binding signal read?
**A.** Its binding signal is 0.00313 KA relative to UGCAUGU.

**Q.** How did the binding signal turn out when B3 was run?
**A.** Its binding signal is 0.00725 KA relative to UGCAUGU.

**Q.** How did the binding signal turn out when B4 was run?
**A.** Its binding signal is 0.021 KA relative to UGCAUGU.

**Q.** How did the binding signal turn out when B5 was run?
**A.** Its binding signal is 0.0279 KA relative to UGCAUGU.

**Q.** For B6, which binding signal is on record?
**A.** Its binding signal is 0.00619 KA relative to UGCAUGU.

**Q.** How did the binding signal turn out when B7 was run?
**A.** Its binding signal is 0.0177 KA relative to UGCAUGU.

**Q.** With B8 as the binder, how does the binding signal read?
**A.** The binding signal was 0.0193 KA relative to UGCAUGU.

**Q.** For B9, which binding signal is on record?
**A.** Its binding signal is 0.00453 KA relative to UGCAUGU.

**Q.** How did the binding signal turn out when B10 was run?
**A.** Its binding signal is 0.00919 KA relative to UGCAUGU.

**Q.** Which binding signal does the source give for B11 here?
**A.** Its binding signal is 0.0186 KA relative to UGCAUGU.

**Q.** How did the binding signal turn out when B12 was run?
**A.** Its binding signal is 0.0179 KA relative to UGCAUGU.

**Q.** How did the binding signal turn out when B13 was run?
**A.** Its binding signal is 0.0329 KA relative to UGCAUGU.

**Q.** Which binding signal does the source give for B14 here?
**A.** The binding signal was 0.00436 KA relative to UGCAUGU.

**Q.** With B15 as the binder, how does the binding signal read?
**A.** Its binding signal is 0.000235 KA relative to UGCAUGU.

**Q.** B16 was tested. Which binding signal did it give?
**A.** The binding signal was 0.00223 KA relative to UGCAUGU.

**Q.** B17 was tested. Which binding signal did it give?
**A.** The binding signal was 0.00422 KA relative to UGCAUGU.

**Q.** Which binding signal does the source give for B18 here?
**A.** Its binding signal is 0.00612 KA relative to UGCAUGU.

**Q.** With B19 as the binder, how does the binding signal read?
**A.** Its binding signal is 0.0169 KA relative to UGCAUGU.

**Q.** Which binding signal does the source give for B20 here?
**A.** The binding signal was 0.00866 KA relative to UGCAUGU.
